In PubChem BioAssay AID504333 (National Center for Advancing Translational Sciences (NCATS), 2011):
About 16,000 (4.4%) of roughly 360,000 compounds were called active. The shares of active, inactive and inconclusive entries below differ from those in the screen. Calls follow the shape of the dose curve; as a rule, active = well fitted inhibition curve with a large enough effect; inconclusive = small, poorly fitted or top-dose-only effect; inactive = no such curve, though single readings can be large or run the other way. A potency beside an inconclusive call is a rough fit, not a confirmed value.

Target: Bromodomain adjacent to zinc finger domain protein 2B (Homo sapiens) (UniProt Q9UIF8)
Experiment: qHTS Assay for Inhibitors of BAZ2B; also: nearly all actives have a fitted effect of over 60% in size
Conditions: AlphaScreen BAZ2B-H3K14Ac peptide displacement; series mostly up to 114 µM
Outline: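 Multi-concentration screen (max 110 uM) measuring displacement of acetylated histone H3 peptide from BAZ2B by AlphaScreen, using 50 nM protein, 50 nM peptide and 10 ug/mL streptavidin donor plus Ni-chelate acceptor beads.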
Potency is read from the fitted curve at half-maximal effect; tags tell the direction and shape of the fitted curve.

Chain of UniProt Q9UIF8 (Q9UIF8 whole entry, looked up, the tested form may be a part): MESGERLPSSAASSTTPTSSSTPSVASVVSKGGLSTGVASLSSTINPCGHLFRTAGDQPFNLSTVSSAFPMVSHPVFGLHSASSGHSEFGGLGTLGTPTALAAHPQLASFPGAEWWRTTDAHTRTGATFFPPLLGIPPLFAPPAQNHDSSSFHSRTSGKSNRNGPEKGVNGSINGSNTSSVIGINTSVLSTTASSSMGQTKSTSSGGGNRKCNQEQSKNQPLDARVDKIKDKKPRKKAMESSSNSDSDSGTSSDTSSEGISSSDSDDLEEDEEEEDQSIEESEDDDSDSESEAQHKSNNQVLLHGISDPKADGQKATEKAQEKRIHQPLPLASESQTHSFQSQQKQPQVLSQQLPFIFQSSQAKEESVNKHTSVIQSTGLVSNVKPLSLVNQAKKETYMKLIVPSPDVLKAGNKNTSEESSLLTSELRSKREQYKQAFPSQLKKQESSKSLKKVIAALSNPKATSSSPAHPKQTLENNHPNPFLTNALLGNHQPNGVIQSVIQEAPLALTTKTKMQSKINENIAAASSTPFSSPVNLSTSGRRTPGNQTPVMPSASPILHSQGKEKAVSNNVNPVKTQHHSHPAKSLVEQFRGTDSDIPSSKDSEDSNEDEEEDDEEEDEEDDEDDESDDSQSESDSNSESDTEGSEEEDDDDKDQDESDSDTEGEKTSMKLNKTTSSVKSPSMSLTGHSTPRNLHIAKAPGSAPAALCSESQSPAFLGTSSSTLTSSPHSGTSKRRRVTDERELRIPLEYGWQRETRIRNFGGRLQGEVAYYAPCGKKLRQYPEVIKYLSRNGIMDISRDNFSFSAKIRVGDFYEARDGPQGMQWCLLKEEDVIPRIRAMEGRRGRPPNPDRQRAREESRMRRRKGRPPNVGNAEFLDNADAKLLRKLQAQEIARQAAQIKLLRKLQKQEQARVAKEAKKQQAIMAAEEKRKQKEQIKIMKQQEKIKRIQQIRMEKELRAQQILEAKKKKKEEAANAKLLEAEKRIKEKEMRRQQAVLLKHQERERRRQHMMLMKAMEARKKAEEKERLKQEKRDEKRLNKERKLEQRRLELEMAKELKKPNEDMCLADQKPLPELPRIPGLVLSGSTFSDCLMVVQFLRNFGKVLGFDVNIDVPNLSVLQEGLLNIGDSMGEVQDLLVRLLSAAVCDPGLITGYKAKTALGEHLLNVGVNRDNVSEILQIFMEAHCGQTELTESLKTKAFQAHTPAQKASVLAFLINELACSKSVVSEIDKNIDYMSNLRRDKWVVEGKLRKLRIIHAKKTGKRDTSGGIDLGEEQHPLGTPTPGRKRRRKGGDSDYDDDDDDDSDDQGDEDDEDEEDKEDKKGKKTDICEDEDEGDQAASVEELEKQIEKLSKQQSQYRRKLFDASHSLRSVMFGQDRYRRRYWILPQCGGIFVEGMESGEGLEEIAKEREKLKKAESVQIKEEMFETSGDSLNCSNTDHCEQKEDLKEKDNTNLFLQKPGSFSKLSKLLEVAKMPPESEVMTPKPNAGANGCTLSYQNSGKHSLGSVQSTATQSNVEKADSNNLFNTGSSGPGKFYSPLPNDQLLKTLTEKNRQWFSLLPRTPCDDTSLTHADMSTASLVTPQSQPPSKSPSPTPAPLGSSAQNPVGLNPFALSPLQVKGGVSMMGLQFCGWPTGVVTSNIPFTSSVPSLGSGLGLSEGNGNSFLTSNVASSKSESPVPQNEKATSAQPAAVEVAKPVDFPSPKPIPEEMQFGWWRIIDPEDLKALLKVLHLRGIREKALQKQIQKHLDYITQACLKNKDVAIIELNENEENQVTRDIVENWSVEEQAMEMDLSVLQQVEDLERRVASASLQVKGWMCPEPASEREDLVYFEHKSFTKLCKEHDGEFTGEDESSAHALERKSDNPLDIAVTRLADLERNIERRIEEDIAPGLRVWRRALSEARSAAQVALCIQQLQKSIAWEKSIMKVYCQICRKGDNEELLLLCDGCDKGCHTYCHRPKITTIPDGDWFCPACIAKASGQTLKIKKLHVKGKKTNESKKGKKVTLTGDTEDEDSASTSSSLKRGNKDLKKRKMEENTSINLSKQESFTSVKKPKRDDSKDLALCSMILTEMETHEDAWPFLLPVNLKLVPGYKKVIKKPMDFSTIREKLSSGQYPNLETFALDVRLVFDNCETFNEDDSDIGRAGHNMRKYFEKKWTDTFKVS

Compound | Potency
CCCCn1c(NC(=O)c2ccco2)c(C(=O)OCC)c2nc3ccccc3nc21 | inactive
CN1C(=O)C(=Cc2ccccc2OS(=O)(=O)c2ccccc2)C(=O)N(C)C1=O | inconclusive: 89.1 µM [inhibitor, single point]
CCOc1cccc(N2C(=O)/C(=C/c3ccco3)C(=O)NC2=S)c1 | active: 31.6 µM
O=C1NC(=O)C(=Cc2csc3ccccc23)C(=O)N1 | inconclusive: 89.1 µM [inhibitor, single point]
Cc1[nH]c2ccccc2c1CCNCc1ccco1 | inconclusive: 56.2 µM [inhibitor, partial curve]
COc1ccc(N2CCN(c3ncnc4c3nc3n4CCCCC3)CC2)cc1 | inconclusive: 35.5 µM [inhibitor, full curve]
CCN1CCN(Cc2cc(Br)ccc2O)CC1 | inconclusive: 89.1 µM [inhibitor, single point]
CCOc1cccc(=NC2CCCCC2)c2c(C)n(C)c(C)c12 | inconclusive: 50.1 µM [inhibitor, partial curve]
CC1Oc2cc3c(-c4c(O)cc(O)c5c(O)c6c(cc45)OC(C)C(C)C6=O)c(O)cc(O)c3c(O)c2C(=O)C1C (stereo not given) | active: 31.6 µM
CCS(=O)(=O)N1CCN(C2CCC(C)CC2)CC1 (stereo not given) | active: 56.2 µM
COc1cc(C(c2c(O)c3ccccc3oc2=O)c2c(C)n(C)n(-c3ccccc3)c2=O)ccc1OCC(=O)O (stereo not given) | inactive
CCN(CC)S(=O)(=O)c1ccc(NN=C(C#N)C#N)cc1 | inconclusive: 50.1 µM [inhibitor, partial curve]
COc1ccc(CN2C(=O)NC(=O)/C(=C/c3ccc([N+](=O)[O-])s3)C2=O)cc1 | active: 25.1 µM
O=[N+]([O-])c1cc(O)c(O)c([N+](=O)[O-])c1 | inconclusive: 44.7 µM [inhibitor, partial curve]
CN1CCc2nc3sc(C(=O)NC4CC4)c(N)c3cc2C1 | inconclusive: 100 µM [inhibitor, partial curve]
Oc1ccccc1CN(CCc1ccccc1)Cc1ccccc1 | inconclusive: 89.1 µM [inhibitor, single point]
O=Cc1cn(Cc2cccc([N+](=O)[O-])c2)c2ccccc12 | inconclusive: 79.4 µM [inhibitor, single point]
O=c1[nH]c2ccccc2c(=O)n1-c1cccc(Cl)c1 | inactive
O=C(N/N=C/c1c(O)n(C2CC2)c(=S)[nH]c1=O)c1ccccc1O | active: 44.7 µM
CCCCC(CC)COCCCN=Cc1c(O)[nH]c(=S)[nH]c1=O (stereo not given) | inactive
COc1ccccc1NC(=O)N(Cc1ccc2c(c1)OCO2)C1CCN(Cc2ccccc2)CC1 | inconclusive: 39.8 µM [inhibitor, partial curve]
O=C1NC(=O)N(Cc2ccco2)C(=O)/C1=C/c1ccc(-c2cccc([N+](=O)[O-])c2)o1 | active: 35.5 µM

Compound | Potency
CCOc1ccc(N2C(=O)NC(=O)/C(=C\c3ccc(N4CCOCC4)cc3C)C2=O)cc1 | inconclusive: 79.4 µM [inhibitor, single point]
O=C1/C(=C\c2ccc([N+](=O)[O-])cc2)N2CCC1CC2 | inconclusive: 44.7 µM [inhibitor, partial curve]
CCCCN1C(=O)/C(=C\c2ccco2)C(=O)N(CCc2ccccc2)C1=O | active: 35.5 µM
c1cc2c(cc1CCNC1C3CC4CC(C3)CC1C4)OCO2 (stereo not given) | inconclusive: 89.1 µM [inhibitor, single point]
COc1ccc2[nH]cc(CCN=C(N)N)c2c1 | inconclusive: 44.7 µM [inhibitor, partial curve]
Nc1c2c(nc3ccccc13)CCN(Cc1ccccc1)C2 | inconclusive: 89.1 µM [inhibitor, single point]
Cn1cc(/C=C/c2nc3ccccc3c(=O)n2-c2ccccc2)c2ccccc21 | inconclusive: 31.6 µM [inhibitor, partial curve]
Cn1cc(C(=O)N2CCC3(CC2)OCCO3)c2c3ccccc3n(C)c2c1=O | inconclusive: 89.1 µM [inhibitor, single point]
Nc1ccc(N=Nc2ccccc2)cc1 | active: 22.4 µM
O=C(NCC(c1cccnc1)N1CCN(c2ccccc2F)CC1)Oc1ccccc1 (stereo not given) | inconclusive: 5.01 µM [inhibitor, partial curve, poor fit]
COc1ccc(N2CCN(C(=O)C3CCCN(S(=O)(=O)c4ccc5c(c4)CCCN5C(C)=O)C3)CC2)cc1 (stereo not given) | inconclusive: 70.8 µM [inhibitor, single point]
CCCCn1c(O)c(C(C)=NC(C)c2ccccc2)c(=O)[nH]c1=O (stereo not given) | inconclusive: 3.98 µM [inhibitor, single point]
CCOC(=O)C1=Nc2ccccc2/C1=C\c1c(O)n(C)c(=O)n(C)c1=O | inactive
Cc1ccc2nsnc2c1NS(=O)(=O)c1c(C)ccc2nsnc12 | inconclusive: 50.1 µM [inhibitor, partial curve]
CCCNC1=C(C)C(=O)C2=C(C1=O)C(COC(N)=O)[C@]1(OC)C3NC3CN21 (stereo not given in full) | inconclusive: 79.4 µM [inhibitor, single point]
CCCCCCCSc1cc(OC)c(CCNC)cc1OC | active: 20 µM
COc1cc(/C=C(/C)[N+](=O)[O-])ccc1OCc1ccccc1Cl | inconclusive: 8.91 µM [inhibitor, full curve, poor fit]
COc1ccc2[nH]cc(CCN=C(NC(=O)c3ccccc3OC)Nc3nc(C)cc(C)n3)c2c1 | active: 25.1 µM
CC(C)CCn1c(=O)c(C(=O)Nc2ccccc2S(N)(=O)=O)c(O)c2ccccc21 | inconclusive: 25.1 µM [inhibitor, single point]
C=CCn1c(=O)c(C=Nc2c(OC)cccc2[N+](=O)[O-])c(O)n(CCCC)c1=O | inconclusive: 28.2 µM [inhibitor, full curve, poor fit]
Cc1ccc(C)c(S(=O)(=O)c2nnn3c2nc(N2CCN(C)CC2)c2sccc23)c1 | inconclusive: 100 µM [inhibitor, single point]
CCOC(=O)c1c(/N=C/c2c(O)n(-c3ccccc3F)c(=S)[nH]c2=O)sc2c1CCCC2 | inconclusive: 70.8 µM [inhibitor, single point]

Compound | Potency
Oc1cc2c(cc1O)[C@H]1c3ccccc3CN[C@@H]1CC2 | inconclusive: 79.4 µM [inhibitor, single point]
COc1ccc(CN2CCN(c3ccccc3F)CC2)cc1O | inconclusive: 31.6 µM [inhibitor, single point]
Cc1[nH]c2ccc(OCc3ccccc3)cc2c1CCN | inconclusive: 17.8 µM [inhibitor, partial curve]
Cc1cc(Oc2cc(NN3CCCCC3)c([N+](=O)[O-])cc2[N+](=O)[O-])ccc1[N+](=O)[O-] | active: 50.1 µM
Cc1nn(-c2ccccc2)c2c1C(c1ccc(F)cc1F)C(C#N)=C(N)O2 (stereo not given) | inconclusive: 79.4 µM [inhibitor, single point]
O=c1cccc2n1CC1CC2CN(Cc2c(F)cccc2Cl)C1 (stereo not given) | inconclusive: 89.1 µM [inhibitor, single point]
O=C(Cn1ncc2c3ccccc3n(Cc3cccc(Cl)c3)c2c1=O)N1CCC2(CC1)OCCO2 | inconclusive: 50.1 µM [inhibitor, partial curve]
Cc1cccn2c(=O)c(C=Nc3ccccc3)c(NCc3ccco3)nc12 | inconclusive: 50.1 µM [inhibitor, partial curve]
CSc1nn(-c2ccc(C(=O)OCC(=O)NC(=O)NC(C)C)cc2)c(=S)s1 | inconclusive: 39.8 µM [inhibitor, full curve, poor fit]
Cc1c(Cl)cccc1N1C(=O)NC(=O)/C(=C\c2cc(C)n(-c3cccc(C(=O)O)c3C)c2C)C1=O | inconclusive: 89.1 µM [inhibitor, single point]
O=C(COC(=O)Cc1ccccc1)Nc1cc(S(=O)(=O)N2CCCCC2)ccc1Cl | inactive
O=C(c1ccc2c3c(cccc13)CC2)C1CCCN(Cc2ncc[nH]2)C1 (stereo not given) | inconclusive: 44.7 µM [inhibitor, partial curve]
CN1c2ccc([N+](=O)[O-])cc2CC2(C(=O)NC(=O)N(c3ccc(Br)cc3)C2=O)C1c1ccccc1 (stereo not given) | inconclusive: 11.2 µM [inhibitor, full curve, poor fit]
Cc1cc(/C=C2\C(=O)NC(=O)N(c3cccc(F)c3)C2=O)c(C)n1-c1ccc(C(=O)O)c(Cl)c1 | inconclusive: 89.1 µM [inhibitor, single point]
COc1cc(Br)cc(CN2CCN(C)CC2)c1O | inconclusive: 89.1 µM [inhibitor, single point]
CCOC(=O)c1ccc(N=Cc2c(O)n(-c3ccc(OC)cc3)c(=S)[nH]c2=O)cc1 | inconclusive: 100 µM [inhibitor, single point]
C[N+]1(C)C2CC(OC(=O)C(CO)c3ccccc3)CC1C1OC12 (stereo not given) | inactive
O=C(Cc1cc(=O)[nH][nH]1)N/N=C/c1ccccc1Cl | inconclusive: 79.4 µM [inhibitor, single point]
CC(C)Sc1nnc([C@@H](N)Cc2ccccc2)o1 | inconclusive: 89.1 µM [inhibitor, single point]
CN1C(=O)NC(c2cccc(O)c2)C(C(=O)c2cccs2)C1(O)C(F)(F)F (stereo not given) | inconclusive: 56.2 µM [inhibitor, partial curve]
COc1cc(O)c(C(=O)O)c(-c2cc(O)c(O)cc2C)c1 | active: 56.2 µM
